To fix the notation:
B1: CPEB3 Ribozyme (parent)
chain: UAACAGGGGGCCACAGCAGAAGCGUUCACGUCGCAGCCCCUGUCAGAUUCUGGUGAAUCUGCGAAUUCUGCUGUAUAUCUC

From the RNAGym collection of RNA variant scans (doi:10.1093/nar/gkz1192) come the findings set out here.

Read counts are not given, so values of variants with three or more changes are uncertain.

This data set covers variants of B1. Description: self-cleavage, relative activity (ratio to wild type); higher = more cleavage; in vitro, sequencing. The method in brief: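 After error-prone PCR and barcoding, CPEB3 ribozyme mutant libraries were transcribed with T7 RNA polymerase at 37°C for 5 hours, then given 15 min with DNase I before an EDTA stop, and they cleaved during both steps. Reverse transcription with template switching preceded Illumina sequencing. Relative activity divides a variant's cleaved/total read fraction by the unmutated ribozyme's. At least 5 reads were required per variant, and three batches were averaged.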
Take A28G G33A U48A A77U: the self-cleavage stood at 0.22.

Regarding A28G C29G A64G, the self-cleavage was determined as 0.42.

For the variant A28G U43C A47G C62U A65U U72C, the self-cleavage came out at 0.09.

For the variant A28G U31A U60A U76C A77G, the self-cleavage came out at 0.09.

Turning to A28C U67C U69C A75G, the self-cleavage was 0.11.

For the variant A28G A45C U58A, the self-cleavage came to 0.37.

Take A28G U58C U60C A75G: the self-cleavage amounted to 0.07.

Regarding A28C A35G U51C C81U, the self-cleavage stood at 0.69.

With A28G G33A U43A, the self-cleavage came out at 0.52.

As for A28G U54C C79U, the self-cleavage was found to be 0.8.

Regarding A28G U51A U60C U67A, the self-cleavage came out at 0.09.

Consider A28G A45G U54A G63C, for which the self-cleavage came to 0.37.

As for A28G A56G U60C U74A, the self-cleavage stood at 0.13.

Turning to A28G G36C U49A U69A, the self-cleavage came to 0.11.

With A28G A57U U78C, the self-cleavage was determined as 0.25.

In the case of A28G U31A G73A, the self-cleavage is 0.96.

As to A28G G46U U66C U69A, the self-cleavage was found to be 0.04.

Take A28G G36A U54A A77G: the self-cleavage came out at 0.16.

As to A28C A45U U54C, the self-cleavage was 0.1.

Take A28C G63A U72C: the self-cleavage turned out to be 0.23.

For the variant A28G G42C U43C U67C, the self-cleavage was determined as 0.15.

As to A28G U41C U72C U74C, the self-cleavage is 0.76.

For A28G A45G U58C U69A U72C U76C A77U, the self-cleavage was determined as 0.09.

In the case of A28G A45G U78C, the self-cleavage stood at 0.31.

A28G U51G U54C: the self-cleavage came out at 0.45.

Turning to A28G A35G C40A U54G, the self-cleavage was 0.19.

For the variant A28G U41C C71G, the self-cleavage came out at 0.09.

Consider C27U G52A A77U, for which the self-cleavage is 0.1.

Consider A28G G46A A65G A75U U80A, for which the self-cleavage amounted to 0.1.

Take A28G U72C U80C: the self-cleavage is 0.95.

In the case of A28G U43C U54C U69A A75U U80A, the self-cleavage came to 0.15.

As to A28G U41C A47G A64G, the self-cleavage was determined as 0.26.

With A28G A35G C37G, the self-cleavage was found to be 0.18.

A28G U69A U76A: the self-cleavage is 0.44.

For the variant A28C U51C U78C, the self-cleavage worked out at 0.4.

In the case of A28G C29U C39A G55U U69C A77U, the self-cleavage was found to be 0.11.

For the variant A28G U43C U54G G61U, the self-cleavage was 0.08.

A28C U41C A64G A65U: the self-cleavage stood at 0.1.

In the case of A28G U41C G70U, the self-cleavage was 0.

A28U A35G U41A U43C U48C U80A: the self-cleavage came out at 0.16.

For the variant A28G C40U U58G, the self-cleavage stood at 0.17.

For the variant A28G U67C U78A, the self-cleavage was found to be 0.14.

Regarding A28G U51A U58C G61A, the self-cleavage is 0.2.

For A28G A47G U49A U67A, the self-cleavage amounted to 0.08.

Take A28G C39U A56G: the self-cleavage stood at 0.16.

Consider A28G U43C G55U U72A, for which the self-cleavage stood at 0.03.

With C27U U31C U49C U67C, the self-cleavage worked out at 0.1.

For A28G U48G A56U A75G, the self-cleavage is 0.11.

As for A28G U60G U69A A77U C79A, the self-cleavage is 0.07.

For the variant A28G U54A G63A, the self-cleavage is 0.63.

In the case of A28G A45U U80A, the self-cleavage amounted to 0.33.

As for A28G C29U A35G, the self-cleavage was 0.5.

A28C U66C U74C A75G: the self-cleavage was found to be 0.23.

Regarding A28G C40U U51A A64U, the self-cleavage was 0.2.

On to A28G C34U A64G, for which the self-cleavage stood at 0.13.

Turning to A28G U54C U60A, the self-cleavage is 0.3.

Turning to A28G U43C U49A U60G C62U U72C, the self-cleavage stood at 0.05.

Consider A28G C29U A35G U69A, for which the self-cleavage stood at 0.23.

Consider A28C U51A U54C U58A, for which the self-cleavage was determined as 0.16.

Take A28G C39A A45U U60A A64G: the self-cleavage is 0.12.

For A28G A57G U67C, the self-cleavage is 0.16.

With A28G G46U U58C, the self-cleavage was 0.08.

Regarding A28G C32A G52A A75G, the self-cleavage was 0.14.

Consider A28G U31C C44U, for which the self-cleavage was 0.17.

As for A28C A56G U80A, the self-cleavage is 0.61.

Regarding A28G C29U U48C, the self-cleavage stood at 0.4.

With A28G A35U G46C U58G U60C, the self-cleavage worked out at 0.09.

With A28G A45U C59A, the self-cleavage was found to be 0.05.

With A28G U51A U76C, the self-cleavage came to 0.64.

A28G U49C U60A U69A: the self-cleavage came out at 0.06.

A28G U49C A57U: the self-cleavage came to 0.15.

Regarding A28G U54G A64G A65U, the self-cleavage was 0.17.

With A28G U69A U80A, the self-cleavage came out at 0.19.

In the case of A28G C39A U51G, the self-cleavage was 0.24.

Consider C27U U41C A64G U66C A77U, for which the self-cleavage was determined as 0.07.

In the case of A28C C38A U48C A65G U67A U80C, the self-cleavage was 0.1.

As to A28G A45U U48C G63A, the self-cleavage was 0.16.

Regarding A28G G33A U43A U54C, the self-cleavage is 0.35.

Turning to A28G U60C U66C U72C, the self-cleavage was 0.13.

For the variant A28G U49C A75U, the self-cleavage stood at 0.41.

In the case of A28G U31C U72A U80C, the self-cleavage turned out to be 0.72.

As to A28U A35G A56U, the self-cleavage came to 0.99.

In the case of A28G C44A C62U, the self-cleavage was 0.16.
